Laboratory results: the supplement of paper PMC11417369
The list shows a part of the results.

Tested on: PfAP2-HC AP2 domain (GST-tagged)
Test: gcPBM binding intensity (ln(normalized median fluorescence intensity)); higher = stronger DNA binding
Summary of the method: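 For binding intensity, the highest Masliner-normalised natural-log median intensity across replicate spots of either probe orientation was taken. Protein bound to the array was stained with Alexa488 anti-GST antibody and scanned at 488 nm. The protein, GST-tagged P. falciparum DNA-binding domains from E. coli at about 25 μg on average, had been applied for 1 h to an Agilent 4 × 180k array of primer-extended double-stranded 36-bp intergenic genomic probes and negative controls.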

Sequence	gcPBM binding intensity (ln)
AAAAATAAAAAAATAAAAAATAAAAAAATAAAAAAT [CACACA_negctrl_site1425]	9.65
TATATACACACCGTGTGTACATATACATTAACTGAA [XGTACX_site7120]	10
TATATATACATACGTACACACAAATATTAAAATATA [CACACA_site1951]	9.79
TCAAAATTGCTTTGTTGTACTAATAAAATTTATTAC [XGTACX_site1121]	9.54
TATCTGTAAACATATTCACACACATAAATTCGCATA [CACACA_site8557]	9.97
TACACTAATGACAGTTGTACTTTTATTCGATAGAAT [XGTACX_site738]	9.51
TATATATATATAATATGTACATATATACATGCCTTG [XGTACX_site2791]	9.67
ACTTTTTTTTTGTGTGTGCACTCGATTATATACATA [GTGCAC_site9846]	10.2
TCGAAAATGACGAATGGTACAGTATGTATAAAAATA [XGTACX_site1258]	9.64
ATGGCATAAATATATGCACACACAAAAAAAAAAAAA [CACACA_site7902]	9.94
AAAAAGAAAAAGAGCACACAAAAATATTTAACCTTT [CACACA_site2747]	10.1
TTTCTTTTTTTTTGAAGTACATAAAAATATAAAAAA [XGTACX_site311]	9.18
ATATATATATGTATGTATATATATATATATATGTTT [CACACA_negctrl_site248]	9.74
AATATTATAAAATATTGTACTTAAAAAATTATTAAA [XGTACX_site2469]	9.53
TAAATTTTTTCTTTTTGTACATATTTTAAAAATGTT [XGTACX_site7526]	9.53
TATAAATTTATACCAGTGCATTTTGAAATATATATA	9.5
TGGAACCATAAAAAGTGTACACATATAAAAAATATG [XGTACX_site96]	9.89
ATAATATGAGTCCCACAAAATAGACCATACGAATAT [CACACA_negctrl_site50]	9.66
TATATTTATATAATATGTACATATTTTTTAATATTT [XGTACX_site3834]	9.64

Sequence	gcPBM binding intensity (ln)
TATTTTATTTTCCGAAGTACAAAAGCAAAAAAAAAC [XGTACX_site103]	9.38
AGCTAAAATATTTTTGCACACGATTTTTTTTTTTTT [CACACA_site1140]	9.69
TATATATTTTATATATGTACATATTTATATGTTTCT [XGTACX_site1818]	9.76
AAAAAAAAGTTATATACACACATATAAATATAAATA [CACACA_site6683]	9.98
CGCGAACATACATACACACACATATATATATATGTA [CACACA_site205]	10.2
TTTTTTTTTTTTTGAACACACATTATTAACTTTTAT [CACACA_site6281]	9.77
AAAAATATTAAAAGGCGTACAATACCTGTATGCAAC [XGTACX_site6069]	9.8
CATGTAAAATATTAAAGTACATGATTATATATATAT [XGTACX_site7486]	9.77
ATGCACGGAAAAATATGTACTTAATTTCAATAATAT [XGTACX_site8311]	9.61
CGGACATACTAACGGACACACGTAAGAAAAAAAAAG [CACACA_site4504]	10.1
AGAGAGAACGGTATAACATGCGATAAATTTTAGAAG [TGCATGCA_site357]	9.91
TATATGTCCATATTTCCACACACATATTATTTTTAT [CACACA_site9266]	10.3
TATTAATTTTTCCTTTTTTTTTTACCCCTTTGTACA [CACACA_negctrl_site947]	9.51
ATATATTATATTATATGTACTTAAAAAAGTGCAAAG [XGTACX_site318]	9.66
TATATTCAATTTTTGGTGCGTAAATTAATACAAACA [GTGCAC_site9764]	9.45
AAATAATACATTCGTACTACACATATATATTAAATA [XGTACX_site7806]	9.74
AATATATACATATATACACACACATATATATATATA [CACACA_site8907]	10.2
TAAAATGTTATAAGAACATGCAATTCCTTTTATTAT [TGCATGCA_site408]	9.54
ATTTTAATTTTGTATACACACATTTGAATTATTAAT [CACACA_site3528]	9.97

Sequence	gcPBM binding intensity (ln)
TTGTCATTATTATATTGTACAATAAGTATTAAAGAA [XGTACX_site1205]	9.61
TATATATATTCTTTGTGTACTCATATAAGGGTAGAA [XGTACX_site8121]	9.43
TTTTTAGAAAAGGTTATAAAAAATTAATTGAAAAAA [GTGCAC_negctrl_site289]	9.31
AATCAATATTATATATGTACTTATTTTCACTTTTGC [XGTACX_site1775]	9.81
TATGAACATATATATTGTACAAAATTATAATTTCAA [XGTACX_site6406]	9.42
AAGCGAATCTATATCACACACAAAAAAATCAGACTA [CACACA_site7072]	9.9
AGTTCAGAATTGAATAGTACATAAATATAACAAAAT [XGTACX_site650]	9.88
AACTGATATTAATTCTGTACCTATACGTTATATGTT [XGTACX_site1003]	9.86
ACCCAAAATATATTCACACAAAAAATATTAAAAATA [CACACA_site5433]	9.61
AAAAATAAATATACATGTACATAATAATAATATATA [XGTACX_site8359]	10.1
TTTGAAAAAAAATATTGTACACGTGAATAAAGTATT [XGTACX_site644]	9.69
TTGCATCTATTTTTGAGTACACAATGAGAATAATTA [XGTACX_site7171]	9.26
AAAAAAAAAAGACACACACACACATACACATACATA [CACACA_site7362]	11.1
TATATATATATATATATATATATATATATAATTTGA [XGTACX_negctrl_site3]	9.36
TTATTATATATGTTCACATAAATACATAAATATATA [GTGCAC_negctrl_site529]	9.42
TTAAAAAAGTAATTAACACACAATAATGTAATGCAT [CACACA_site4176]	9.9
TATTTAAATTAATATTGTACATATATTTATAATATA [XGTACX_site6109]	9.5
TTTATTTATATAATTACACACATATATACACAAATG [CACACA_site8903]	9.79
AAATATATTATATATGCATGCGCCAAGATTTATATA [TGCATGCA_site770]	9.61
